# Source: paper PMC4336329 (PLoS ONE, 2015)
# Screen size: about 310,000 compounds; about 2,200 (0.71%) showed an effect of 50% or more. Effects have a minus sign here. This is one part of the list.
# Biological target: human ether-à-go-go-related gene (hERG) potassium channel (human, UniProt Q12809)
# Test: primary screen, population patch clamp on CHO cells stably expressing hERG
# Sequence of human ether-à-go-go-related gene (hERG) potassium channel (Q12809 whole entry, looked up): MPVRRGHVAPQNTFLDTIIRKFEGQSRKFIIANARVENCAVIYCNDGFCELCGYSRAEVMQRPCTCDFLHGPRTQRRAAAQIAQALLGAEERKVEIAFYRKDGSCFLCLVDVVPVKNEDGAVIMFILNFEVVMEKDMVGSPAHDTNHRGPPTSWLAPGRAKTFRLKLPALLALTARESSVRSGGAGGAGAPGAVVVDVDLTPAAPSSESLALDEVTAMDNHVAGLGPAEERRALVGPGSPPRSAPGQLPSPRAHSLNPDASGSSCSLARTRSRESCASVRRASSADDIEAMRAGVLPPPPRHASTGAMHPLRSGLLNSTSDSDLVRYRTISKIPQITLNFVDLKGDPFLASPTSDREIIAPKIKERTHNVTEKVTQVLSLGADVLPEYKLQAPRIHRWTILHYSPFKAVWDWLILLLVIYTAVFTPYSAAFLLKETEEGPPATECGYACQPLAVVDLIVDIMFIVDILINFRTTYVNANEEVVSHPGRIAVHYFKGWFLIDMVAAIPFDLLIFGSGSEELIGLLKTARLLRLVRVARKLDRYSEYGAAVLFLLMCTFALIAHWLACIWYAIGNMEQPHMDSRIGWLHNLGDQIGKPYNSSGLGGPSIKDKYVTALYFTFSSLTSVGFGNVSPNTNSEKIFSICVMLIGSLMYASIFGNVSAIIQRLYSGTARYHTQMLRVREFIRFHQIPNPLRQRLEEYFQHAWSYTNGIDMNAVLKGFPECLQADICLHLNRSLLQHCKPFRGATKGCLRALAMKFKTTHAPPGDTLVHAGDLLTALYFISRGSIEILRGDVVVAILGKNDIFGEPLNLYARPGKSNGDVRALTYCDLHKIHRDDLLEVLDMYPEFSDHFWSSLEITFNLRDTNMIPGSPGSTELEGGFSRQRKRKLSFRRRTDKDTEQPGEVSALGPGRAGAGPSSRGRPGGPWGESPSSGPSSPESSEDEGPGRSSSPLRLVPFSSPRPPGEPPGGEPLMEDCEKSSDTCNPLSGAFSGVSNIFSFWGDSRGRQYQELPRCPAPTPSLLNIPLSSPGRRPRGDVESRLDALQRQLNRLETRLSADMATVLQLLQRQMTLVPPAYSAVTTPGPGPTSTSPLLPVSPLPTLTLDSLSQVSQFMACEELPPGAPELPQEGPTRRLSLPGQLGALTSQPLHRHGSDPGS
row,Compound,"hERG current change (%, negative = inhibition) at 1uM [%]"
1,CCc1c(C)nc(SC/C=C/c2ccccc2)[nH]c1=O,1.87
2,CC1c2cc3c(cc2CCN1C(=O)c1cccc(F)c1)OCCCO3 (stereo not shown),21.6
3,CC1CCC2(CC1)NC(=O)N(CC(=O)c1ccc(Cl)s1)C2=O (stereo not shown),4.95
4,O=C1CN(C(=O)c2ccccc2F)C(c2ccccc2)c2cc(F)ccc2N1 (stereo not shown),-2.56
5,O=C(Nc1ccc(C(F)(F)F)cc1)c1cccn(Cc2ccc3c(c2)OC(F)(F)O3)c1=O,4.3
6,O=C(Nc1ccc2c(c1)CCC2)C1COc2ccccc2O1 (stereo not shown),-2.72
7,CCCc1c(C(=O)N/N=C/C(C)=C/c2ccccc2)nnn1-c1nonc1N,4.41
8,O=C(CCN1C(=O)/C(=C\c2ccccc2)SC1=S)NNC(=O)c1cccnc1,12
9,CCCC1C2CN(C(C)C)CC=C2C(C#N)=C(N)C1(C#N)C#N (stereo not shown),0.259
10,COc1ccc(NC(=S)N2CCC(C(=O)c3ccc(C)cc3)CC2)c(OC)c1,31.5
11,CC(C)(C)c1ccc(/C=N/OCC(=O)NCc2ccc(F)cc2)cc1,11.5
12,COc1ccc(CN2CCNC(=O)C2CC(=O)NC2CCCCCC2)c(C)c1C (stereo not shown),6.97
13,COCCOC(=O)C1=C(C)N(Cc2ccccc2)C(=O)NC1c1ccc(OC)cc1 (stereo not shown),-1.91
14,COc1ccc(Cc2nc3ccc(C(=O)NCC4COCCO4)cc3o2)cc1OC (stereo not shown),14.3
15,CC(C)=C1C2CCC1C1C(=O)N(c3ccc4c(c3)OCO4)C(=O)C21 (stereo not shown),12.5
16,CCN(CC(=O)Nc1c(F)cccc1F)C(=O)c1ccc2c(c1)OCO2,10.2
17,Clc1cccc(N/N=C/c2ccncc2)c1,3.11
18,COc1cccc(CN2CCN(C(=O)CC(C)C)CC2)c1,-2.83
19,Cl.OCCNc1nc(N2CCN(c3ccccc3)CC2)nc2ccccc12,-49.3
20,CCn1c(CC(=O)Nc2ccccc2F)nnc1SCC(=O)N1CCOCC1,7.18
21,N#CCCn1cc(CNC2CCC(O)CC2)c2ccccc21 (stereo not shown),15
22,COc1cc2c(cc1NC(=O)c1cccnc1)CCCC2,15.6
23,Cc1cc(Nc2c(C#N)c(N)nn2C)ccc1F,7.95

row,Compound,"hERG current change (%, negative = inhibition) at 1uM [%]"
1,COc1ccc(-n2c(SCC(=O)C(C)(C)C)nc3ccsc3c2=O)cc1,10.2
2,O=C(/C=C/c1ccc(Cl)c([N+](=O)[O-])c1)Nc1cccnc1,4.94
3,COC(=O)c1sccc1NC(=O)c1ccccc1Br,9.34
4,Cc1ccc(-c2[nH]ncc2C(=O)c2ccc(Br)cc2)c(O)c1,5.02
5,BrCC(Br)C1CCC(Br)C(Br)C1 (stereo not shown),20
6,Cc1ccc(CNC(=O)C2CCCCC2C(=O)O)cc1 (stereo not shown),6.64
7,O=C(Nc1ccc(S(=O)(=O)N2CCCC2)cc1)c1ccc(Br)o1,13.7
8,COc1ccc(CC(=O)Nc2ccc(S(=O)(=O)N3CCOCC3)cc2)cc1,-14.7
9,CCCCC(=O)N(Cc1nc2sc(C)c(C)c2c(=O)[nH]1)C1CCCC1,11.5
10,CNCC(=O)N1CCN(c2ncc(C(F)(F)F)cc2Cl)CC1.Cl,2.03
11,O=C(O)C1C2C=CC(C2)C1C(=O)N1CCc2ccccc21 (stereo not shown),15.8
12,CN1CCN(c2nc(-c3ccc(Br)cc3)nnc2-c2ccccc2)CC1,3.78
13,COc1ccc(/C=C2/N=C3CCCCCN3C2=O)cc1OC,12.5
14,CCc1ccc(OC(C)C(=O)Nc2ccc(S(=O)(=O)Nc3nccs3)cc2)cc1 (stereo not shown),14.5
15,COc1ccc(/C(N)=N/OC(=O)C2CCCCC2)cc1,12.9
16,CCCNS(=O)(=O)c1ccc(CCC(=O)N2CCCC2)cc1,9.71
17,CCOc1ccc(NC(=O)c2cc(S(=O)(=O)N3CCCCC3)c[nH]2)cc1,11.3
18,COc1ccc(OC)c(NC(=O)CCN2CCN(c3ccccc3)CC2)c1,3.51
19,CSc1ccc(/C=N/N2CCN(Cc3ccc(C)cc3C)CC2)cc1,13.6
20,O=c1[nH]c(=S)[nH]nc1Cc1ccccc1,13.3
21,Cc1ccccc1N(CC(=O)NC1CCCC1)C(=O)c1oc(C(C)(C)C)cc1C,10.5
22,O=C(Nc1ncn[nH]1)c1cc([N+](=O)[O-])ccc1Cl,14.2
23,COC(=O)c1sccc1NC(=O)c1c(-c2ccccc2)noc1C,7.31
